# Experimental data: PubChem BioAssay (NCATS)
# Where “and” joins values, the source holds several entries; their conditions need not be identical. Identical values can stand only once. Inconclusive means that the source gave no clear call. Such entries were picked first, then a sample of the others. For part of these data: Potencies beside an inconclusive call are fits to weak or partial responses and may not hold up. Calls of active or inactive are those of the source. Unless noted, calls follow the shape of the dose curve; as a rule, active = well fitted curve in the direction sought with a large enough effect; inconclusive = small, poorly fitted or top-dose-only effect, or another doubt; inactive = no such curve, though single readings can be large; an effect the other way counts as inactive or inconclusive.
# How the values were obtained:
# [1] = qHTS Screen of the MIPE 4.0 Collection Against Ewings Sarcoma (RDES) (AID 1259252); also: nearly all actives have a fitted effect of over 35% in size
# Summary of the method: (§1)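 Measured: ATP luminescence (CellTiter-Glo) 10 min after reagent addition, following 48 h drug treatment. Relative luciferase units converted to percent activity, with no-cell wells as full and DMSO wells as zero inhibition.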
# [2] = qHTS Screen of the MIPE 4.0 Collection Against Ewings Sarcoma (TC71) (AID 1259253); also: nearly all actives have a fitted effect of over 40% in size
# Summary of the method: as §1
# [3] = qHTS Screen of the MIPE 4.0 Collection Against Ewings Sarcoma (EW8) (AID 1259255); also: nearly all actives have a fitted effect of over 35% in size
# Summary of the method: as §1
# [4] = P-glycoprotein substrates identified in KB-8-5-11 adenocarcinoma cell line, qHTS therapeutic library screen (AID 1346987); also: nearly all actives have a fitted effect of over 65% in size
# Summary of the method: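 P-gp-mediated resistance screen: KB-8-5-11 cells treated 72 h with compounds in dose-response. CellTiter-Glo viability.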
# [5] = qHTS Assay for Identifying Gametocytocidal Compounds (AID 743244); details: P. falciparum 3D7 stage III-V gametocytes, alamarBlue, 72 h; max response: stronger effect = lower value
# Summary of the method: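 Late gametocytes (III–V), P. falciparum 3D7; 72 h drug, then 24 h alamarBlue; resazurin reduction read by fluorescence.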
# [6] = qHTS Screen of the MIPE 4.0 Collection Against Ewings Sarcoma (TC32) (AID 1259256); also: nearly all actives have a fitted effect of over 45% in size
# Summary of the method: as §1
# [7] = P-glycoprotein substrates identified in KB-3-1 adenocarcinoma cell line, qHTS therapeutic library screen (AID 1346986);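 also: potency is for cytotoxicity meaning loss of cell viability; nearly all actives have a fitted effect of over 60% in size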
# Summary of the method: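 KB-3-1 parental cells and P-gp-overexpressing KB-8-5-11 (colchicine omitted during assay) plated at 500 cells/well, dosed in dose-response, incubated 72 h at 37 degree C. CellTiter-Glo luminescence read; KB-8-5-11 also tested with tariquidar.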
# [8] = molecular target: Atrial natriuretic peptide receptor 1 (Homo sapiens) (UniProt P16066); assay: Natriuretic polypeptide receptor (hNpr1) antagonism - Pilot screen (AID 1347049; calls by dose curve;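 also: agonist-evoked cGMP luminescence read 20 min after hNppA addition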)
# UniProt P16066, sequence (P16066 whole entry, looked up): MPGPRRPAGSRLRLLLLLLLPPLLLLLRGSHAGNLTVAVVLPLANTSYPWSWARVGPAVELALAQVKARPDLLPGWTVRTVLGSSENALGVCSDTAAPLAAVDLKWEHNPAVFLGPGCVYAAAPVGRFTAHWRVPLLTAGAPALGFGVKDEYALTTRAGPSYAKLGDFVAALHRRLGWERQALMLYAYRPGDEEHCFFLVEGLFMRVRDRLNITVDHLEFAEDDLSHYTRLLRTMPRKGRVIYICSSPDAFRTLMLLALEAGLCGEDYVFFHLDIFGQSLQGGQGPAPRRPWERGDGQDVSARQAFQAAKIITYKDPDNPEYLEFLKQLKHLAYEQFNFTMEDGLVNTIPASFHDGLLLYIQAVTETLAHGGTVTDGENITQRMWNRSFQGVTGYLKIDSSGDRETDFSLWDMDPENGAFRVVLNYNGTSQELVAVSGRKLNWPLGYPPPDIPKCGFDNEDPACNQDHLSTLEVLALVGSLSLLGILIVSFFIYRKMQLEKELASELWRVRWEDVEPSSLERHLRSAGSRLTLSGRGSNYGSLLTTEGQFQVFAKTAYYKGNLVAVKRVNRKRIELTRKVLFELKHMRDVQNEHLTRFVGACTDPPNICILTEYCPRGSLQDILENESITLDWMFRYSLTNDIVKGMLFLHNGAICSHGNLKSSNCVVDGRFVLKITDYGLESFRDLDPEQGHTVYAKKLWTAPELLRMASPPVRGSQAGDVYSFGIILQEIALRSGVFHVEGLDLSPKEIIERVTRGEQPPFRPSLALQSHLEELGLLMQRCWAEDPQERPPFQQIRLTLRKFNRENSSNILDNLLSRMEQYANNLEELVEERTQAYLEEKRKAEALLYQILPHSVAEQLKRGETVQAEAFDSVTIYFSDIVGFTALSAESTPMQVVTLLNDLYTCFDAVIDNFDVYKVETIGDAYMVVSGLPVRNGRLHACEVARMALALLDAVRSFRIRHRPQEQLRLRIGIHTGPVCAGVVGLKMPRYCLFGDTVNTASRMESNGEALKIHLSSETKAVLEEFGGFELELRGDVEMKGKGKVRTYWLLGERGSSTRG
# Summary of the method: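 HEK293 cells co-expressing hNpr1 and the GloSensor pGS-40F cGMP luciferase sensor were preloaded with 2% GloSensor reagent for 2 h. Compounds were added for 30 min at room temperature, then cells were stimulated with 0.1 nM hNppA for 20 min before luminescence readout.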
# [9] = qHTS assay to identify small molecule inhibitors of chordoma cells - UCH-1 (AID 1259355); also: series mostly up to about 46 µM; nearly all actives have a fitted effect of over 55% in size
# Summary of the method: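 Luminescent ATP read-out (CellTiter-Glo, 30min at room temperature) measured viability of UCH-1 cells exposed for 48hr to test drugs at 15 concentrations, co-dosed with a five-agent combination of auranofin, camptothecin, doxorubicin, rubitecan and topotecan.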
# [10] = qHTS assay to identify small molecule inhibitors of chordoma cells - UCH-2 (AID 1259356); details: UCH-2 chordoma viability, CellTiter-Glo ATP luminescence, 48 h
# [11] = Natriuretic polypeptide receptor (hNpr1) antagonism - Pilot counterscreen GloSensor control cell line (AID 1347045; calls by dose curve)
# Summary of the method: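 This counterscreen uses HEK293 cells expressing the GIP/pGS-40F cGMP biosensor. Compound-treated cells are challenged with 50 uM sodium nitroprusside, and the luciferase signal is compared before and after stimulation.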
# Potency is read from the fitted curve at half-maximal effect; tags tell the direction and shape of the fitted curve.
compound,measurement,setting,value
O=C(O)C1=CO[C@@H](O[C@@H]2O[C@H](CO)[C@H](O)[C@H](O)[C@H]2O)[C@@H]2C(CO)=CC[C@H]12,Potency,[1],"inconclusive: 26.4 µM [inhibitor, single point]"
same,Potency,[2],active: 16.6 µM
same,Potency,[3],inactive
same,Potency,[4],inactive
COc1nccc(-c2c(-c3ccc(F)cc3)ncn2C2CCNCC2)n1,Potency,[1],"inconclusive: 0.264 µM [inhibitor, partial curve, poor fit]"
same,Potency,[2],active: 5.9 µM
same,Potency,[3],active: 9.35 µM
same,Potency,[4],"inconclusive: 14.8 µM [inhibitor, partial curve]"
Cc1cccc(C)c1OCC(=O)N[C@@H](Cc1ccccc1)[C@@H](O)C[C@H](Cc1ccccc1)NC(=O)[C@H](C(C)C)N1CCCNC1=O,Potency,[5],active: 11.2 µM and active: 6.62 µM
same,Potency,[1],"inconclusive: 26.4 µM [inhibitor, single point]"
same,Potency,[2],"inconclusive: 23.5 µM [inhibitor, partial curve]"
same,Potency,[3],"inconclusive: 20.9 µM [inhibitor, partial curve]"
same,Potency,[6],"inconclusive: 37.2 µM [inhibitor, single point]"
O=C(O)c1ccc(-c2c[nH]c3ncc(-c4ccccc4)cc23)cc1C1CCCC1,Potency,[1],"inconclusive: 8.33 µM [inhibitor, partial curve, poor fit]"
same,Potency,[2],"inconclusive: 9.35 µM [inhibitor, partial curve, poor fit]"
same,Potency,[3],"inconclusive: 6.62 µM [inhibitor, full curve]"
same,Potency,[7],"inconclusive: 3.66 µM [inhibitor, full curve]"
O=C1c2ccccc2-c2n[nH]c3cccc1c23,Potency,[1],"inconclusive: 16.6 µM [inhibitor, partial curve]"
same,Potency,[2],"inconclusive: 33.2 µM [inhibitor, single point]"
same,Potency,[3],"inconclusive: 2.64 µM [inhibitor, full curve, poor fit]"
same,Potency,[7],"inconclusive: 25.9 µM [inhibitor, single point]"
same,Potency,[4],"inconclusive: 26.4 µM [inhibitor, single point] and inconclusive: 20.6 µM [inhibitor, single point]"
same,Potency,[8],"inconclusive: 8.49 µM [inhibitor, single point]"
Oc1ccc(-c2nc(-c3ccc(F)cc3)c(-c3ccncc3)[nH]2)cc1,Potency,[1],"inconclusive: 20.9 µM [inhibitor, single point]"
same,Potency,[2],"inconclusive: 20.9 µM [inhibitor, partial curve]"
same,Potency,[3],"inconclusive: 23.5 µM [inhibitor, single point]"
same,Potency,[6],"inconclusive: 18.7 µM [inhibitor, partial curve]"
same,Potency,[8],"inconclusive: 37.9 µM [inhibitor, single point]"
CN(C)c1ccc(O)c2c1C[C@H]1C[C@H]3[C@H](N(C)C)C(=O)C(C(N)=O)=C(O)[C@@]3(O)C(=O)C1=C2O,Potency,[5],"inconclusive: 17.8 µM [inhibitor, single point]"
same,Potency,[1],"inconclusive: 4.69 µM [inhibitor, full curve]"
same,Potency,[2],active: 4.69 µM
same,Potency,[3],"inconclusive: 9.35 µM [inhibitor, partial curve]"
same,Potency,[6],"inconclusive: 5.26 µM [inhibitor, full curve]"
OCCN1CCN(CCCN2c3ccccc3Sc3ccc(C(F)(F)F)cc32)CC1,Potency,[1],"inconclusive: 37.2 µM [inhibitor, single point]"
same,Potency,[2],"inconclusive: 26.4 µM [inhibitor, single point]"
same,Potency,[3],"inconclusive: 33.2 µM [inhibitor, single point]"
same,Potency,[9],active: 31.6 µM
same,Potency,[10],"inconclusive: 25.9 µM [cytotoxic, single point]"
same,Potency,[4],active: 16.6 µM and active: 18.4 µM
same,Potency,[11],"inconclusive: 14.7 µM [inhibitor, single point]"
CCNc1cc(NC2CCC(O)CC2)nc(Nc2ccc3c(ccn3Cc3ccccc3)c2)n1 (stereo not drawn),Potency,[1],"inconclusive: 37.2 µM [inhibitor, single point]"
same,Potency,[2],"inconclusive: 26.4 µM [inhibitor, single point]"
same,Potency,[3],"inconclusive: 23.5 µM [inhibitor, partial curve]"
same,Potency,[4],"inconclusive: 20.9 µM [inhibitor, single point]"
COC(=O)N1CCN(Cc2cccc(NC(=O)Nc3ccc(C)nc3)c2F)CC1,Potency,[1],"inconclusive: 8.33 µM [inhibitor, partial curve, poor fit]"
same,Potency,[2],active: 8.33 µM
same,Potency,[3],inactive
same,Potency,[4],"inconclusive: 26.4 µM [inhibitor, partial curve, poor fit]"
